In PubChem BioAssay (NCATS):
The shares of active, inactive and inconclusive entries below differ from those in the screen. Potencies beside an inconclusive call are fits to weak or partial responses and may not hold up. Activity calls are given as the source filed them. Calls come from the whole dose curve; as a rule, active = well fitted curve in the direction sought with a large enough effect; inconclusive = small, poorly fitted or top-dose-only effect, or another doubt; inactive = no such curve, though single readings can be large; an effect the other way counts as inactive or inconclusive.

Legend:
[1] = qHTS of pediatric cancer cell lines to identify multiple opportunities for drug repurposing: Confirmatory screen for BT-37 cells (AID 1347117); conditions: BT-37 pediatric cancer cells, viability; series mostly up to 45.9 µM;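 note: viability measured after 48 h of compound exposure; nearly all actives have a fitted effect of over 55% in size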
Method in brief: (§1)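 Viability after 48 h compound treatment at 37C, 500-1,000 cells/well, read as ATP luminescence with CellTiter-Glo. Primary screens used 11-point (MIPE, 0.78 nM-46 µM) or 8-point (NPC, 0.59 nM-46 µM) final concentrations; follow-up screens used 11-point dilutions.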

[2] = qHTS of pediatric cancer cell lines to identify multiple opportunities for drug repurposing: Confirmatory screen for TC32 cells (AID 1347118); conditions: TC32 Ewing sarcoma cells viability qHTS; series mostly up to 45.9 µM;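 note: cells exposed to compound for 48 h before the read; nearly all actives have a fitted effect of over 65% in size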
Method in brief: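 qHTS, TC32, 48 h drug treatment, CellTiter-Glo luminescence as a proxy for metabolically active cells; primary top concentration 46 µM (MIPE 11-pt, NPC 8-pt); confirmatory 11-pt.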

[3] = qHTS of pediatric cancer cell lines to identify multiple opportunities for drug repurposing: Confirmatory screen for control Hh wild type fibroblast cells (AID 1347121); conditions: viability qHTS; series mostly up to 45.9 µM; note: nearly all actives have a fitted effect of over 70% in size
Method in brief: as §1

[4] = qHTS of pediatric cancer cell lines to identify multiple opportunities for drug repurposing: Confirmatory screen for RD cells (AID 1347124); conditions: RD rhabdomyosarcoma cell viability; activity change, negative = cytotoxic: at 45.9 µM (top of the series);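 note: cells exposed to compound for 48 h before viability readout; nearly all actives have a fitted effect of over 65% in size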
Method in brief: as §1

[5] = qHTS of pediatric cancer cell lines to identify multiple opportunities for drug repurposing: Confirmatory screen for Rh18 cells (AID 1347125); conditions: Rh18 rhabdomyosarcoma cells, viability; activity change, negative = cytotoxic: at 45.9 µM (top of the series); note: nearly all actives have a fitted effect of over 55% in size
Method in brief: as §1

[6] = qHTS of pediatric cancer cell lines to identify multiple opportunities for drug repurposing: Confirmatory screen for Saos-2 cells (AID 1347127); conditions: Saos-2 osteosarcoma cell viability; series mostly up to 45.9 µM; note: nearly all actives have a fitted effect of over 60% in size
Method in brief: as §1

[7] = qHTS of pediatric cancer cell lines to identify multiple opportunities for drug repurposing: Confirmatory screen for MG 63 (6-TG R) cells (AID 1347119); conditions: MG-63 (6-TG resistant) osteosarcoma viability; series mostly up to 45.9 µM; note: nearly all actives have a fitted effect of over 55% in size
Method in brief: as §1

[8] = qHTS of pediatric cancer cell lines to identify multiple opportunities for drug repurposing: Confirmatory screen for U-2 OS cells (AID 1347122); conditions: U-2 OS osteosarcoma cell viability; series mostly up to 45.9 µM; note: nearly all actives have a fitted effect of over 65% in size
Method in brief: as §1

[9] = qHTS of pediatric cancer cell lines to identify multiple opportunities for drug repurposing: Confirmatory screen for Rh41 cells (AID 1347123); conditions: Rh41 rhabdomyosarcoma cells, viability/cytotoxicity qHTS; series mostly up to 45.9 µM;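 note: 48 h compound exposure; nearly all actives have a fitted effect of over 60% in size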
Method in brief: as §1

[10] = qHTS of pediatric cancer cell lines to identify multiple opportunities for drug repurposing: Confirmatory screen for Rh30 cells (AID 1347126); conditions: Rh30 rhabdomyosarcoma cell viability; series mostly up to 45.9 µM; note: nearly all actives have a fitted effect of over 55% in size
Method in brief: as §1
Potency is the fitted concentration of half-maximal effect; tags give direction and shape of the fitted curve.

## O=C1NC(=O)C(=Cc2ccc3nccc(-c4ccncc4)c3c2)S1
[1]
  Potency: inconclusive: 5.85 µM [cytotoxic, full curve, poor fit]
[2]
  Potency: inactive
[3]
  Potency: inconclusive: 2.93 µM [cytotoxic, full curve]
[4]
  Potency: active: 7.37 µM
[5]
  Potency: inconclusive: 3.69 µM [cytotoxic, full curve]
[6]
  Potency: active: 2.93 µM

## CCCCC(=O)O[C@]1(C(=O)CO)CC[C@H]2[C@@H]3CCC4=CC(=O)CC[C@]4(C)[C@H]3[C@@H](O)C[C@@]21C
[2]
  Potency: inconclusive: 36.9 µM [cytotoxic, single point]
[7]
  Potency: inconclusive: 36.9 µM [cytotoxic, single point]
[3]
  Potency: inactive
[8]
  Potency: inconclusive: 29.3 µM [cytotoxic, single point]
[9]
  Potency: inconclusive: 20.8 µM [cytotoxic, partial curve]
[4]
  Potency: inconclusive: 32.9 µM [cytotoxic, single point]
[6]
  Potency: inconclusive: 36.9 µM [cytotoxic, single point]

## C[C@]12C=CC(=O)C=C1[C@@H](F)C[C@@H]1[C@@H]2[C@@H](O)C[C@@]2(C)[C@H]1CC[C@]2(O)C(=O)CO
[1]
  Potency: inactive
[8]
  Potency: inactive
[4]
  Potency: inactive
[6]
  Potency: inconclusive: 0.928 µM [rising, full curve, poor fit]

## CC1(C)O[C@@H]2C[C@H]3[C@@H]4CCC5=CC(=O)CC[C@]5(C)[C@@]4(F)[C@@H](O)C[C@]3(C)[C@]2(C(=O)CCl)O1
[2]
  Potency: inactive
[7]
  Potency: inconclusive: 4.65 µM [cytotoxic, partial curve]
[3]
  Potency: inactive
[4]
  Potency: inactive
[10]
  Potency: inactive

## COc1cc(C=C2CCC/C(=C\c3ccc(O)c(OC)c3)C2=O)ccc1O
[1]
  Potency: active: 5.85 µM
[7]
  Potency: active: 20.8 µM
[3]
  Potency: inactive
[8]
  Potency: inconclusive: 36.9 µM [cytotoxic, single point]
[4]
  Potency: active: 9.27 µM
[5]
  Potency: inconclusive: 18.5 µM [cytotoxic, partial curve]
[6]
  Potency: active: 11.7 µM

## CC1(C)O[C@@H]2C[C@@H]3[C@H]4C[C@@H](F)C5=CC(=O)C=C[C@]5(C)[C@@]4(F)[C@@H](O)C[C@]3(C)[C@]2(C(=O)CO)O1
[2]
  Potency: active: 0.369 µM
[7]
  Potency: active: 2.61 µM
[3]
  Potency: inactive
[4]
  Potency: active: 8.27 µM
[10]
  Potency: inactive

## C[C@]12CCC(=O)C=C1CC[C@H]1[C@@H]3CC[C@](O)(C(=O)CO)[C@@]3(C)C[C@H](O)[C@@]12F
[2]
  Potency: inconclusive: 20.8 µM [cytotoxic, single point]
[7]
  Potency: inactive
[3]
  Potency: inactive
[4]
  Potency: inactive
[10]
  Potency: inconclusive: 16.5 µM [cytotoxic, partial curve]

## CC(=O)N1CCN(c2ccc(OCc3nn(C)c(C)c3-c3cccc4c(CCCOc5cccc6ccccc56)c(C(=O)O)n(Cc5cccnc5)c34)cc2)CC1
[1]
  Potency: inactive
[2]
  Potency: inconclusive: 32.9 µM [cytotoxic, single point]
[4]
  Potency: inactive
[5]
  Potency: inactive
[6]
  Potency: inconclusive: 36.9 µM [cytotoxic, single point]

## O=C1N=C(O)CN1/N=C/c1ccc(-c2ccc([N+](=O)[O-])cc2)o1
[2]
  Potency: inactive
[7]
  Potency: inactive
[4]
  Potency: inactive

## Cc1cnc(Nc2ccc(F)cc2Cl)nc1-c1c[nH]c(C(=O)N[C@H](CO)c2cccc(Cl)c2)c1
[1]
  Potency: inactive
[2]
  Potency: inactive
[7]
  Potency: inactive
[4]
  Potency: inconclusive: 36.9 µM [cytotoxic, partial curve, poor fit]
[10]
  Potency: inconclusive: 29.3 µM [cytotoxic, single point]

## CS(=O)(=O)c1ccc([C@@H](O)[C@@H](CO)NC(=O)C(Cl)Cl)cc1
[1]
  Potency: inactive
[2]
  Potency: inactive
[8]
  Potency: inactive
[10]
  Potency: inactive
[6]
  Potency: inconclusive: 10.4 µM [rising, partial curve]

## CCOC(=O)[C@H](CCc1ccccc1)N[C@@H](C)C(=O)N1CCCC1C(=O)O (some centres not stated)
[1]
  Potency: inconclusive: 10.4 µM [cytotoxic, partial curve, poor fit]
[3]
  Potency: inconclusive: 9.27 µM [cytotoxic, partial curve]
[9]
  Potency: active: 9.27 µM
[10]
  Potency: active: 7.37 µM

## CCOc1ccc2nc3cc(N)ccc3c(N)c2c1
[1]
  Potency: inconclusive: 14.7 µM [cytotoxic, partial curve]
[3]
  Potency: inconclusive: 23.3 µM [cytotoxic, partial curve, poor fit]
[4]
  Potency: inconclusive: 26.1 µM [cytotoxic, single point]
[5]
  Potency: inactive
[10]
  Potency: inconclusive: 1.85 µM [cytotoxic, full curve]
[6]
  Potency: inconclusive: 0.293 µM [rising, full curve]

## COc1ccc(-c2ccc3c(N4CCOCC4)nc(N4C[C@@H](C)O[C@@H](C)C4)nc3n2)cc1CO
[1]
  Potency: inconclusive: 2.08 µM [cytotoxic, full curve, poor fit]
[2]
  Potency: inconclusive: 0.0012 µM [cytotoxic, full curve, poor fit]
[7]
  Potency: inconclusive: 1.31 µM [cytotoxic, full curve, poor fit]
[3]
  Potency: inconclusive: 1.04 µM [cytotoxic, full curve]
[10]
  Potency: active: 0.657 µM
[6]
  Potency: inconclusive: 1.47 µM [cytotoxic, full curve, poor fit]

## Nc1ccn([C@@H]2O[C@H](CO)[C@H](O)C2(F)F)c(=O)n1
[1]
  Potency: active: 0.0074 µM
[2]
  Potency: inconclusive: 0.0465 µM [cytotoxic, full curve, poor fit]
[3]
  Potency: inconclusive: 18.5 µM [cytotoxic, partial curve, poor fit]
[4]
  Potency: inconclusive: 32.9 µM [cytotoxic, single point]
[6]
  Potency: inconclusive: 1.17 µM [cytotoxic, full curve, poor fit]

## C=C1[C@H](n2cnc3c(=O)[nH]c(N)nc32)C[C@H](O)[C@H]1CO
[1]
  Potency: inactive
[8]
  Potency: inactive

## Cc1ccc(S(=O)(=O)Nc2nc3ccccc3nc2Nc2ccc3nsnc3c2)cc1
[1]
  Potency: active: 1.29 µM
[7]
  Potency: active: 16.2 µM
[8]
  Potency: inconclusive: 18.2 µM [cytotoxic, single point]
[4]
  Potency: inconclusive: 18.2 µM [cytotoxic, single point]
[10]
  Potency: inconclusive: 18.2 µM [cytotoxic, single point]
[6]
  Potency: inconclusive: 18.2 µM [cytotoxic, single point]

## COc1c(C)c2c(c(O)c1C/C=C(\C)CCC(=O)O)C(=O)OC2
[1]
  Potency: inconclusive: 1.04 µM [cytotoxic, full curve, poor fit]
[2]
  Potency: inconclusive: 0.585 µM [cytotoxic, full curve, poor fit]
[3]
  Potency: inconclusive: 16.5 µM [cytotoxic, partial curve]
[4]
  Potency: inconclusive: 1.47 µM [cytotoxic, full curve, poor fit]
[10]
  Potency: active: 1.31 µM
[6]
  Potency: inconclusive: 1.65 µM [cytotoxic, full curve, poor fit]

## CCCCc1nc2cc(C=CC(=O)NO)ccc2n1CCN(CC)CC
[1]
  Potency: active: 1.85 µM
[2]
  Potency: active: 1.31 µM
[3]
  Potency: inconclusive: 9.27 µM [cytotoxic, partial curve]

## C[C@@H]1C[C@H]2[C@@H]3C[C@H](F)C4=CC(=O)C(Cl)=C[C@]4(C)[C@@]3(F)[C@@H](O)C[C@]2(C)[C@@]1(O)C(=O)CO
[1]
  Potency: inconclusive: 32.9 µM [cytotoxic, single point]
[2]
  Potency: inconclusive: 32.9 µM [cytotoxic, single point]
[3]
  Potency: inconclusive: 36.9 µM [cytotoxic, single point]
[4]
  Potency: inconclusive: 36.9 µM [cytotoxic, single point]
[5]
  Potency: active: 26.1 µM
[10]
  Potency: inconclusive: 29.3 µM [cytotoxic, single point]
[6]
  Potency: inconclusive: 32.9 µM [cytotoxic, single point]

## NC(N)=NN=C(/C=C/c1ccc([N+](=O)[O-])o1)/C=C/c1ccc([N+](=O)[O-])o1
[2]
  Potency: inconclusive: 1.04 µM [cytotoxic, full curve, poor fit]
[7]
  Potency: inconclusive: 36.9 µM [cytotoxic, partial curve, poor fit]
[3]
  Potency: inconclusive: 7.37 µM [cytotoxic, single point]
[4]
  Potency: active: 4.14 µM
[5]
  Potency: active: 4.65 µM
[10]
  Potency: active: 2.08 µM
[6]
  Potency: inconclusive: 36.9 µM [rising, single point]

## O=C(NCC1CN(c2ccc(N3CCOCC3=O)cc2)C(=O)O1)c1ccc(Cl)s1 (configuration not stated)
[1]
  Potency: inconclusive: 36.9 µM [cytotoxic, single point]
[7]
  Potency: inconclusive: 5.22 µM [rising, partial curve, poor fit]
[6]
  Potency: inconclusive: 36.9 µM [cytotoxic, single point]

## CC(C)CN(C[C@H](O)[C@H](Cc1ccccc1)NC(=O)O[C@H]1CCOC1)S(=O)(=O)c1ccc(N)cc1
[1]
  Potency: inactive
[2]
  Potency: inconclusive: 10.4 µM [cytotoxic, full curve]
[4]
  Potency: inactive
[10]
  Potency: inactive

## C=C1C[C@H]2[C@@H]3C=C(C)C4=CC(=O)CC[C@]4(C)[C@H]3CC[C@]2(C)[C@@]1(OC(C)=O)C(C)=O
[1]
  Potency: inactive
[4]
  Potency: inactive
[5]
  Potency: inactive
[10]
  Potency: inactive

## COc1ccc(-n2nc(C(N)=O)c3c2C(=O)N(c2ccc(N4CCCCC4=O)cc2)CC3)cc1
[1]
  Potency: inactive
[2]
  Potency: inconclusive: 23.3 µM [cytotoxic, single point]

## CC1CCc2c(N3CCC(O)CC3)c(F)cc3c(=O)c(C(=O)O)cn1c23 (configuration not stated)
[2]
  Potency: inconclusive: 9.27 µM [cytotoxic, single point]
[7]
  Potency: inconclusive: 1.17 µM [rising, full curve]
[4]
  Potency: inactive
[5]
  Potency: inconclusive: 0.0026 µM [rising, full curve, poor fit]
[6]
  Potency: inconclusive: 0.657 µM [rising, full curve]
